We go through 60 compounds from the supplement of paper PMC9446081.

Screen size: about 39,000 compounds; about 220 (0.56%) showed activity. This is one part of the list.
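Note: static incubation at 37 °C against the wild-type strain, values averaged over two biological replicates.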

This experiment has as its system Escherichia coli K-12 BW25113. Description: relative growth (OD600 normalised to plate interquartile mean) (fraction); higher = less growth inhibition, active = 0.2 or less. To be noted: 50 µM; LB; incubation time: overnight (16-24 h).
`CC(C)NC(=O)N(C)C[C@H]1Oc2ccc(NC(=O)NC3CCCCC3)cc2CC(=O)N([C@@H](C)CO)C[C@@H]1C`: the relative growth is inactive: 1.

Take `COc1ccc(NC(=O)Nc2ccc3c(c2)C(=O)N([C@H](C)CO)C[C@@H](C)[C@H](CN(C)S(=O)(=O)c2ccc(F)cc2)OCCCC[C@@H](C)O3)cc1`: the relative growth is inactive: 1.01. In the case of `CCCc1nc(C(C)(C)O)c(C(=O)OCc2oc(=O)oc2C)n1Cc1ccc(-c2ccccc2-c2nn[nH]n2)cc1` it was inactive: 1.1; in that of `Nc1ccn(C2CCC(CO)O2)c(=O)n1` (stereo not given), inactive: 1.1. As to `Cc1cccc(S(=O)(=O)N2C[C@@H](O)COC[C@@H]3O[C@H](CC(=O)NCCCN4CCOCC4)CC[C@H]32)c1`, the relative growth is inactive: 0.979.

In the case of `CC(C)NC(=O)N(C)C[C@H]1Oc2ccc(NC(=O)CCC(F)(F)F)cc2CC(=O)N([C@@H](C)CO)C[C@@H]1C`, the relative growth was inactive: 1.01.

On to `COc1ccc(NC(=O)N(C)C[C@H]2Oc3ccc(NS(=O)(=O)c4c(C)noc4C)cc3C(=O)N([C@@H](C)CO)C[C@H]2C)cc1`, for which the relative growth is inactive: 1. In the case of `Cc1ccc(S(=O)(=O)Nc2ccc3c(c2)CC(=O)N([C@@H](C)CO)C[C@H](C)[C@@H](CN(C)Cc2ccc(Cl)c(Cl)c2)O3)cc1` it was inactive: 1.02. In the case of `C[C@@H]1CN([C@H](C)CO)C(=O)Cc2cc(NS(C)(=O)=O)ccc2O[C@@H]1CN(C)S(C)(=O)=O` it was inactive: 1. In the case of `C[C@H]1CN([C@@H](C)CO)C(=O)c2cc(C#CCC3CCCC3)cnc2O[C@@H]1CN(C)C(=O)c1cnccn1` it was inactive: 0.997; in that of `COc1ccc(NC(=O)Nc2ccc3c(c2)C(=O)N([C@@H](C)CO)C[C@H](C)[C@H](CN(C)C(=O)NC(C)C)OCCCC[C@@H](C)O3)cc1`, inactive: 1. As for `O=C(C[C@@H]1C=C[C@@H](NC(=O)CN2CCOCC2)[C@H](CO)O1)NC1CCCCC1`, the relative growth was inactive: 0.997.

On to `C[C@H]1CN([C@@H](C)CO)C(=O)Cc2cc(NS(=O)(=O)c3cccs3)ccc2O[C@H]1CN(C)S(=O)(=O)c1cccs1`, for which the relative growth is inactive: 1. Under `C[C@@H]1CN([C@@H](C)CO)C(=O)c2cc(NC(=O)CCCCCC(=O)Nc3ccccc3N)ccc2O[C@@H]1CN(C)Cc1ccc(C(F)(F)F)cc1` stands inactive: 1.02; under `C[C@@H]1CN([C@@H](C)CO)C(=O)c2cccc(N(C)C)c2O[C@H]1CN(C)S(=O)(=O)c1ccc(Cl)cc1`, inactive: 0.977.

Regarding `O=C(C[C@@H]1C=C[C@@H](NC(=O)c2cnccn2)[C@H](CO)O1)NCc1ccccc1F`, the relative growth was inactive: 0.986.

For `Cc1ccc(S[C@]2(C(=O)NCC(C)C)CC(=O)N(Cc3ccccc3)[C@@H]2c2ccc(CO)cc2)cc1`, the relative growth was inactive: 0.988.

For `CSc1nc(=O)c(C)n[nH]1`, the relative growth is inactive: 0.98. Turning to `C[C@@H]1CN([C@@H](C)CO)C(=O)c2cc(-c3ccc(C(=O)N(C)C)cc3)cnc2O[C@H]1CN(C)C(=O)c1ccncc1`, the relative growth is inactive: 0.993. On to `O=C(NCC[C@H]1CC[C@@H](NS(=O)(=O)c2cccc(F)c2)[C@H](CO)O1)C1CC1`, for which the relative growth was inactive: 0.981. Under `C[C@@H]1CN([C@@H](C)CO)C(=O)Cc2cc(NS(=O)(=O)c3ccc(Cl)cc3)ccc2O[C@H]1CN(C)C(=O)Nc1ccc(C(F)(F)F)cc1` stands inactive: 1.04. In the case of `C[C@@H]1CCCCO[C@H](CN(C)C(=O)CCC(F)(F)F)[C@H](C)CN([C@@H](C)CO)C(=O)c2cc(NS(=O)(=O)c3ccc(F)cc3)ccc2O1` it was inactive: 0.983; in that of `C[C@H]1CCCCO[C@H](CN(C)S(=O)(=O)c2cccs2)[C@@H](C)CN([C@@H](C)CO)C(=O)c2cc(NC(=O)Nc3ccc(F)cc3)ccc2O1`, inactive: 1.02; in that of `C[C@@H]1CN([C@@H](C)CO)S(=O)(=O)c2ccc(C#CCN(C)C)cc2O[C@@H]1CN(C)Cc1ccncc1`, inactive: 1. In the case of `O=C1OCCN/C1=C/C(=O)c1ccccc1` it was inactive: 1.01; in that of `O=C(C[C@H]1CC[C@@H]2[C@H](COC[C@H](O)CN2C(=O)Nc2ccc(Cl)c(Cl)c2)O1)NCc1ccc(Cl)c(Cl)c1`, inactive: 0.963; in that of `O=C(N[C@@H]1CC[C@H](CC(=O)N2CCOCC2)O[C@@H]1CO)c1ccccn1`, inactive: 0.863.

`COC(=O)OCOc1c2n(ccc1=O)N([C@@H]1c3ccccc3SCc3c1ccc(F)c3F)[C@@H]1COCCN1C2=O`: the relative growth is inactive: 1.03. As for `C[C@@H]1CN([C@H](C)CO)C(=O)c2cccc(NC(=O)c3ccc(-c4nccs4)cc3)c2O[C@@H]1CN(C)C(=O)NC1CCCCC1`, the relative growth is inactive: 0.992. For `C[C@@H]1CN([C@H](C)CO)C(=O)c2cccc(NS(=O)(=O)c3cn(C)cn3)c2O[C@@H]1CN(C)C(=O)Nc1ccccc1`, the relative growth is inactive: 0.98. As for `Cc1ccc(S(=O)(=O)Nc2ccc3c(c2)C(=O)N([C@H](C)CO)C[C@H](C)[C@@H](CN(C)C(=O)Cc2ccccc2)OCCCC[C@H](C)O3)cc1`, the relative growth is inactive: 0.996.

Consider `CN(C)c1nc(SCCO)nc(N(C)C)n1`, for which the relative growth was inactive: 1.02.

In the case of `C[C@@H]1CN([C@H](C)CO)C(=O)c2cc(NC(=O)Cc3ccccc3)ccc2O[C@@H](C)CCCCO[C@@H]1CN(C)Cc1ccc(C(=O)O)cc1`, the relative growth is inactive: 0.902.

On to `COc1cccc(C#Cc2cnc3c(c2)C(=O)N([C@@H](C)CO)C[C@H](C)[C@H](CN(C)C(=O)C2CCOCC2)O3)c1`, for which the relative growth is inactive: 1.01. In the case of `Cc1ccc(C(N)=O)cc1N` it was inactive: 1.02. For `CC(C)NC(=O)Nc1ccc2c(c1)C(=O)N([C@@H](C)CO)C[C@@H](C)[C@@H](CN(C)S(=O)(=O)c1cn(C)cn1)OCCCC[C@H](C)O2`, the relative growth was inactive: 0.995.

On to `C[C@H]1CCCCO[C@@H](CN(C)CC2CCCCC2)[C@@H](C)CN([C@@H](C)CO)C(=O)c2cc(NS(=O)(=O)c3ccc(Cl)cc3)ccc2O1`, for which the relative growth is inactive: 0.958.

For `C[C@H](CO)N1C[C@H](C)[C@@H](CN(C)C(=O)c2ccccc2)OCCCC[C@H](C)Oc2ccc(NC(=O)Nc3ccc(F)cc3)cc2C1=O`, the relative growth is inactive: 0.999. For `C[C@@H]1CN([C@@H](C)CO)C(=O)c2cc(NS(=O)(=O)c3ccc(Cl)cc3)ccc2O[C@@H]1CN(C)Cc1ccc(Cl)c(Cl)c1`, the relative growth was inactive: 1.04. Under `CO[C@@H]1CN(C)C(=O)c2cc(NC(=O)Nc3ccc(Cl)cc3)ccc2OC[C@@H](C)N(C(=O)Nc2c(C)noc2C)C[C@@H]1C` stands inactive: 0.993; under `CC(C)[Si](C#CCCc1ccccc1)(O[C@H](c1ccccc1)c1cn(Cc2ccccc2)nn1)C(C)C`, inactive: 0.996; under `C[C@H]1CCCCO[C@@H](CN(C)Cc2ccc(C(=O)O)cc2)[C@@H](C)CN([C@@H](C)CO)C(=O)c2cc(NC(=O)Nc3cccc4ccccc34)ccc2O1`, inactive: 0.97. In the case of `C[C@H]1CN([C@@H](C)CO)C(=O)Cc2cc(NC(=O)Nc3cccc4ccccc34)ccc2O[C@H]1CN(C)Cc1ccc(Cl)c(Cl)c1`, the relative growth is inactive: 1. For the compound `C[C@@H]1CN([C@H](C)CO)C(=O)c2cccc(NS(=O)(=O)c3cn(C)cn3)c2O[C@@H]1CN(C)S(=O)(=O)c1ccc(Cl)cc1`, the relative growth is inactive: 0.913. With `C[C@@H]1CCCCO[C@@H](CN(C)Cc2ccc(C(F)(F)F)cc2)[C@H](C)CN([C@@H](C)CO)C(=O)c2cc(NC(=O)CCCN(C)C)ccc2O1`, the relative growth was inactive: 0.914. Regarding `CC(=O)N1CCC2(CCCN2)CC1`, the relative growth is inactive: 0.92.

Consider `COc1ccc(NC(=O)N(C)C[C@H]2OCCCC[C@H](C)Oc3ccc(NS(=O)(=O)c4ccc(OC)cc4)cc3C(=O)N([C@H](C)CO)C[C@@H]2C)cc1`, for which the relative growth is inactive: 1.03. As to `COc1ccc(S(=O)(=O)N(C)C[C@@H]2Oc3ccc(NC(=O)Nc4cccc5ccccc45)cc3C(=O)N([C@@H](C)CO)C[C@H]2C)cc1`, the relative growth is inactive: 1. As to `COc1ccc(NC(=O)N(C)C[C@@H]2Oc3ccc(NS(=O)(=O)c4c(C)noc4C)cc3CC(=O)N([C@@H](C)CO)C[C@@H]2C)cc1`, the relative growth is inactive: 1.01. For `CS(=O)(=O)NC[C@@H]1OC[C@@H]2CN(C(=O)c3ccnnc3)CC[C@@H]21`, the relative growth was inactive: 0.982. In the case of `C[C@@H]1CN([C@@H](C)CO)S(=O)(=O)c2ccc(C#CC3CC3)cc2O[C@@H]1CN(C)Cc1ccc(F)cc1` it was inactive: 1.05; in that of `C[C@@H]1CN([C@@H](C)CO)C(=O)Cc2cc(NC(=O)Nc3ccc(C(F)(F)F)cc3)ccc2O[C@@H]1CN(C)Cc1ccncc1`, inactive: 1. In the case of `C[C@@H]1CCCCO[C@@H](CN(C)C(=O)Nc2ccc(C(F)(F)F)cc2)[C@H](C)CN([C@@H](C)CO)C(=O)c2cc(NC(=O)c3ccccc3)ccc2O1` it was inactive: 1.03; in that of `CN1CCN(C(=O)C[C@H]2CC[C@H]3[C@@H](COC[C@@H](O)CN3CC3CCCC3)O2)CC1`, inactive: 1. In the case of `C[C@H]1CN([C@@H](C)CO)C(=O)c2cc(NC(=O)Nc3ccccc3)ccc2O[C@H]1CN(C)C(=O)Nc1ccc(C(F)(F)F)cc1` it was inactive: 1; in that of `C[C@H](CO)N1C[C@H](C)[C@@H](CN(C)C(=O)Nc2cc(F)ccc2F)Oc2cc(/C=C/c3ccccc3)ccc2S1(=O)=O`, inactive: 1.06; in that of `C[C@@H]1CN([C@@H](C)CO)C(=O)c2cc(NC(=O)Cn3cnnn3)ccc2O[C@H]1CN(C)C(=O)NC1CCCCC1`, inactive: 0.974.

Turning to `C[C@@H]1CCCCO[C@@H](CN(C)S(=O)(=O)c2ccc(Cl)cc2)[C@@H](C)CN([C@H](C)CO)C(=O)c2cc(NC(=O)Nc3cccc4ccccc34)ccc2O1`, the relative growth is inactive: 1.03. With `O=C1O[C@@H](CO)[C@H](O)[C@@H](O)[C@@H]1O`, the relative growth is inactive: 1.02. Turning to `CC(C)NC(=O)Nc1ccc2c(c1)CC(=O)N([C@@H](C)CO)C[C@@H](C)[C@@H](CN(C)C(=O)NC1CCCCC1)O2`, the relative growth is inactive: 1.02.
